The other results are listed elsewhere or left out. Sequences were assembled here from the parent chain. Values near 0.05 are background.
B1: TEV protease; numbered along this chain (parent)
chain: MGESLFKGPRDYNPISSSICHLTNESDGHTTSLYGIGFGPFIITNKHLFRRNNGTLVVQSLHGVFKVKDTTTLQQHLVDGRDMIIIRMPKDFPPFPQKLKFREPQREERICLVTTNFQTKSMSSMVSDTSCTFPSGDGIFWKHWIQTKDGQCGSPLVSTRDGFIVGIHSASNFTNTNNYFTSVPKNFMELLTNQEAQQWVSGWRLNADSVLWGGHKVFMVKPEEPFQPVKEATQL

Variants of: B1
Assay: raw area under fraction-flipped curve 0-4 h after induction (AUC4h, not background-subtracted), DNA-recorder readout of cleavage of the substrate (dimensionless); higher = more cleavage of the substrate by the protease variant
Settings: temperature: 34 °C; time window: 0-4 h after rhamnose induction
Method: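 In vivo DNA recorder in E. coli TOP10(DE3) ΔrhaA at 34 °C. Each TEVp single-site mutant (parent TEVp 0) is paired with a single-site variant of the 7-mer TEVs (canonical ENLYFQ|S). The substrate sits between flexible linkers in a Bxb1-sfGFP-TEVs-SsrA fusion, so cleavage stabilises Bxb1 and speeds flipping of a recombination array, read by NGS. The value is the raw area under the fraction-flipped curve over 0-4 h after rhamnose induction (AUC4h), with ≥20 reads per time point. It is not background-subtracted; inactive controls average about 0.047.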
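Further: Bxb1 expression induced with 0.2% (w/v) L-rhamnose at OD600 near 0.5, cultures sampled hourly, flipped fraction per protease–substrate barcode pair counted by paired-end Illumina sequencing.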

MGESLFKGPRDYNPISSSICHLTNESDGHTTSLYGIGFGPFIITNKHLFRRNNGTLVVQSLHGVFKVKDTTTLQQHLVDGRDMIIIRMPKDFPPFPQKLKFREPQREERICLVTTNFQTKSMSSMVSDTSCTFPSGDGIFWKHWIQTKDGQCGSDLVSTRDGFIVGIHSASNFTNTNNYFTSVPKNFMELLTNQEAQQWVSGWRLNADSVLWGGHKVFMVKPEEPFQPVKEATQL [P155D]
area with substrate CNLYFQS: 0.0528
area with substrate DNLYFQS: 0.0523
area with substrate GNLYFQS: 0.0472
area with substrate HNLYFQS: 0.0491
area with substrate INLYFQS: 0.0514
area with substrate KNLYFQS: 0.0604
area with substrate LNLYFQS: 0.0456
area with substrate MNLYFQS: 0.0609
area with substrate NNLYFQS: 0.0536
area with substrate PNLYFQS: 0.05
area with substrate SNLYFQS: 0.038
area with substrate TNLYFQS: 0.0485
area with substrate VNLYFQS: 0.0624
area with substrate WNLYFQS: 0.0513
area with substrate YNLYFQS: 0.0529

MGESLFKGPRDYNPISSSICHLTNESDGHTTSLYGIGFGPFIITNKHLFRRNNGTLVVQSLHGVFKVKDTTTLQQHLVDGRDMIIIRMPKDFPPFPQKLKFREPQREERICLVTTNFQTKSMSSMVSDTSCTFPSGDGIFWKHWIQTKDGQCGSPQVSTRDGFIVGIHSASNFTNTNNYFTSVPKNFMELLTNQEAQQWVSGWRLNADSVLWGGHKVFMVKPEEPFQPVKEATQL [L156Q]
area with substrate CNLYFQS: 0.0475
area with substrate DNLYFQS: 0.051
area with substrate FNLYFQS: 0.0248
area with substrate GNLYFQS: 0.0547
area with substrate HNLYFQS: 0.0791
area with substrate INLYFQS: 0.0461
area with substrate KNLYFQS: 0.064
area with substrate NNLYFQS: 0.0537
area with substrate PNLYFQS: 0.0478
area with substrate RNLYFQS: 0.0552
area with substrate TNLYFQS: 0.0568
area with substrate VNLYFQS: 0.0542
area with substrate WNLYFQS: 0.0454

MGESLFKGPRDYNPISSSICHLTNESDGHTTSLYGIGFGPFIITNKHLFRRNNGTLVVQSLHGVFKVKDTTTLQQHLVDGRDMIIIRMPKDFPPFPQKLKFREPQREERICLVTTNFQTKSMSSMVSDTSCTFPSGDGIFWKHWIQTKDGQCGSPEVSTRDGFIVGIHSASNFTNTNNYFTSVPKNFMELLTNQEAQQWVSGWRLNADSVLWGGHKVFMVKPEEPFQPVKEATQL [L156E]
area with substrate CNLYFQS: 0.0603
area with substrate DNLYFQS: 0.0533
area with substrate FNLYFQS: 0.0485
area with substrate GNLYFQS: 0.0599
area with substrate HNLYFQS: 0.0626
area with substrate INLYFQS: 0.0428
area with substrate KNLYFQS: 0.0509
area with substrate LNLYFQS: 0.0526
area with substrate MNLYFQS: 0.0541
area with substrate NNLYFQS: 0.0558
area with substrate PNLYFQS: 0.0435
area with substrate RNLYFQS: 0.0545
area with substrate SNLYFQS: 0.0688
area with substrate TNLYFQS: 0.0484
area with substrate VNLYFQS: 0.063
area with substrate WNLYFQS: 0.057
area with substrate YNLYFQS: 0.048

MGESLFKGPRDYNPISSSICHLTNESDGHTTSLYGIGFGPFIITNKHLFRRNNGTLVVQSLHGVFKVKDTTTLQQHLVDGRDMIIIRMPKDFPPFPQKLKFREPQREERICLVTTNFQTKSMSSMVSDTSCTFPSGDGIFWKHWIQTKDGQCGSPHVSTRDGFIVGIHSASNFTNTNNYFTSVPKNFMELLTNQEAQQWVSGWRLNADSVLWGGHKVFMVKPEEPFQPVKEATQL [L156H]
area with substrate CNLYFQS: 0.0601
area with substrate DNLYFQS: 0.026
area with substrate GNLYFQS: 0.0582
area with substrate HNLYFQS: 0.0664
area with substrate INLYFQS: 0.0524
area with substrate KNLYFQS: 0.0596
area with substrate LNLYFQS: 0.0548
area with substrate PNLYFQS: 0.046
area with substrate QNLYFQS: 0.0501
area with substrate SNLYFQS: 0.0636
area with substrate TNLYFQS: 0.0715
area with substrate VNLYFQS: 0.0639
area with substrate WNLYFQS: 0.0104
area with substrate YNLYFQS: 0.0499
